Data reported in the supplement of paper PMC11417369.
The list shows a part of the results.

The sequences below were run on PfSIP2 AP2 domain 1 (GST-tagged) (assay: gcPBM binding intensity (ln(normalized median fluorescence intensity)); higher = stronger DNA binding).
How it was run: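 GST-tagged P. falciparum DNA-binding domains produced in E. coli were incubated for 1 h on an Agilent 4 × 180k array of primer-extended double-stranded 36-bp intergenic genomic probes with negative controls. Binding intensity is the highest Masliner-normalised natural-log median intensity across replicate spots of either probe orientation, with bound protein detected by Alexa488 anti-GST antibody at 488 nm.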
For “AGAAGAAATATGTAAAAAATTTTATATTCACACACA [GTGCAC_negctrl_site441]”, the “gcPBM binding intensity (ln)” value was 7.13.
In the case of “TTTATATATAATGTTGCATGTCAAATTTGTATATGG [TGCATGCA_site246]”, the “gcPBM binding intensity (ln)” value is reported as 7.27.
With “TGTAGACATTAATGTAGTACAATATATATATATATT [XGTACX_site8608]” the “gcPBM binding intensity (ln)” value was 7.24.
“TGTTCTTATACTAATAGTACTTTTAGGTACTATAAA [XGTACX_site2954]” was tested, and the “gcPBM binding intensity (ln)” value was 6.95.
“AACTCATCTTATAATTGTACATATTTATAAAAAGTA [XGTACX_site6522]” was tested, and the “gcPBM binding intensity (ln)” value was 7.12.
For “TGTAGAAATGGGTGCACACACATATATAATATATAT [CACACA_site2507]”, the “gcPBM binding intensity (ln)” value was 12.3.
For “AAAAAAAAAAAAAAAAAAAAAAAAAAAAAATATATA [GTGCAC_negctrl_site6]”, the “gcPBM binding intensity (ln)” value was 8.8.
“TTAGGGATGCTGAAATGTACACATTTAAATTATATA [XGTACX_site3000]” was tested, and the “gcPBM binding intensity (ln)” value was 6.99.
“AATGTAAAACTAATATGTACATATCTCTAAAGAAAT [XGTACX_site8429]” was tested, and the “gcPBM binding intensity (ln)” value was 6.96.
“CGTACTAACATAAAGACACACACCACATATAATAAA [CACACA_site3603]” was tested, and the “gcPBM binding intensity (ln)” value was 7.14.
In the case of ATTGTCTTCCTTCTGGTGCGATGTATAGGTAAAGAT, the “gcPBM binding intensity (ln)” value is reported as 8.79.
With “TGATAAGAAAAAGACTTTTCCTTCTTACTTTCTATG [CACACA_negctrl_site782]” the “gcPBM binding intensity (ln)” value was 6.44.
“AATAATGTTTTTATATCACACACAAATATTAAATGA [CACACA_site8074]” was tested, and the “gcPBM binding intensity (ln)” value was 7.05.
With “CAAAATAAATAATTTGGTACACATAAAAAAAAAAAA [XGTACX_site8380]” the “gcPBM binding intensity (ln)” value was 6.92.
For “CCATAAAACTATAATACACACATATAGATTAACATA [CACACA_site7849]”, the “gcPBM binding intensity (ln)” value was 7.02.
“AAAATTGGTGAAAATGAAAATATGATTATATGTATA [XGTACX_negctrl_site505]” was tested, and the “gcPBM binding intensity (ln)” value was 6.73.
“ATAGAATCTGGTAGCTGTACGAGTCGTAGAGTGTAG [XGTACX_site2016]” was tested, and the “gcPBM binding intensity (ln)” value was 7.3.
In the case of “ATATATTAAAAGGATTAGGAAAAAATATGATTTATC [TGCATGCA_negctrl_site405]”, the “gcPBM binding intensity (ln)” value is reported as 6.77.
With “AAGTAAAAAAAAAAAAGTACATGTTTATATAAATAT [XGTACX_site4741]” the “gcPBM binding intensity (ln)” value was 6.9.
For “ATACATATATATAATACACACATAAATGTAACATTT [CACACA_site3518]”, the “gcPBM binding intensity (ln)” value was 7.26.
“ATAAATTAACATTAAAGTACATTTTAATAAATATTA [XGTACX_site3647]” was tested, and the “gcPBM binding intensity (ln)” value was 6.78.
With “ATCCCCATAAAAAATACACACAAATATTTATACATA [CACACA_site1001]” the “gcPBM binding intensity (ln)” value was 7.13.
“ATTACGATAGAGAAATGTACATATATATATGTAAGT [XGTACX_site1200]” was tested, and the “gcPBM binding intensity (ln)” value was 7.11.
With “TATTTTATAAATTAATGTACATAAATTATATCTACT [XGTACX_site3625]” the “gcPBM binding intensity (ln)” value was 6.88.
With “GATCAAAATTATAGAAGTACTTTATATAAATAAAAT [XGTACX_site8161]” the “gcPBM binding intensity (ln)” value was 7.02.
For “TATATATATAAGATTGTGCACATTAAAATGATAGAA [GTGCAC_site9621]”, the “gcPBM binding intensity (ln)” value was 9.73.
With “TCATAAATACATTTTGCATGTAAAATATAGAATACA [TGCATGCA_site755]” the “gcPBM binding intensity (ln)” value was 6.92.
With “TCTATAAAATATAAAAGTACGTATCAATAATTAAAA [XGTACX_site8469]” the “gcPBM binding intensity (ln)” value was 6.93.
For “AATATTTTTGTCGTTAGTACATAAAAAATAATAATA [XGTACX_site3074]”, the “gcPBM binding intensity (ln)” value was 7.05.
For “AATAATAAAGTGAACACACACATATAATATATATAT [CACACA_site4143]”, the “gcPBM binding intensity (ln)” value was 8.41.
In the case of “CAAACAAACGAACACACACACACACGCAAAAATGAT [CACACA_site7194]”, the “gcPBM binding intensity (ln)” value is reported as 7.16.
With “ATAATTAAAATGCTCACACACATAAAAAAAAATTAA [CACACA_site2149]” the “gcPBM binding intensity (ln)” value was 6.94.
In the case of “ATAATTTTATCATATATATATATATATAAATACTTA [CACACA_negctrl_site743]”, the “gcPBM binding intensity (ln)” value is reported as 7.36.
“ATGCTTTTATGCACACGTACAAAAATATTATATAAT [XGTACX_site5589]” was tested, and the “gcPBM binding intensity (ln)” value was 7.36.
“AAAAATTGAATTTTTTTTTTTTTTTTGAGAAGGAAA [CACACA_negctrl_site1196]” was tested, and the “gcPBM binding intensity (ln)” value was 6.8.
With “AACAGATAAAAGGGTACACACATATATACAAGTACA [CACACA_site7959]” the “gcPBM binding intensity (ln)” value was 7.13.
For “TTATGTAGCTAGCTATAAACTTTTTTTTATTTAAAA [CACACA_negctrl_site1297]”, the “gcPBM binding intensity (ln)” value was 6.58.
In the case of “TATATAGATATGATAGTGCATTTTTAGAAAACATAA [GTGCAC_site9962]”, the “gcPBM binding intensity (ln)” value is reported as 8.69.
For “ATATATATATATATATGTACATACTATACAATAATT [XGTACX_site3546]”, the “gcPBM binding intensity (ln)” value was 9.52.
For “ATTATTATTAAATACACACACATACCTCCATGTTAG [CACACA_site3430]”, the “gcPBM binding intensity (ln)” value was 6.79.
For “AAATAAAGGAAATAAAAAGAAACCAATTTCGAATAT [CACACA_negctrl_site953]”, the “gcPBM binding intensity (ln)” value was 6.92.
“GATATAATTATGTGTACACAATTTTTTTTTTTTTTT [CACACA_site4501]” was tested, and the “gcPBM binding intensity (ln)” value was 7.45.
With “ATATGTATGTATAATCGTACAAAATTTGGCGATCTT [XGTACX_site8698]” the “gcPBM binding intensity (ln)” value was 6.75.
In the case of “TTTTTTTTAAAACTATGTACGTAAAAATTGTAGTTT [XGTACX_site2302]”, the “gcPBM binding intensity (ln)” value is reported as 7.19.
“TTTATATGTATTAATTGTACACATATAATGTGTTTT [XGTACX_site3064]” was tested, and the “gcPBM binding intensity (ln)” value was 6.94.
“ATATAGTAAATTGGTAGTACATAAAATGATTTTATG [XGTACX_site4143]” was tested, and the “gcPBM binding intensity (ln)” value was 6.94.
In the case of “AGAACTTTTAATGGATGTACAGTTATTTTATTATTT [XGTACX_site6226]”, the “gcPBM binding intensity (ln)” value is reported as 6.79.
In the case of “ATGAAGAATTTATATTGTACCCATTTTTATGTAAAT [XGTACX_site2528]”, the “gcPBM binding intensity (ln)” value is reported as 7.21.
In the case of “AAAAAAAAAACATACACACATACATACATATATATT [CACACA_site949]”, the “gcPBM binding intensity (ln)” value is reported as 7.02.
For CGAAAAAGTGATATAGTGCAAAATTTTCATTTCTCT, the “gcPBM binding intensity (ln)” value was 7.86.
For “AAAGGGAATTATGGCTGTACGCATTTTATAAATAGC [XGTACX_site5878]”, the “gcPBM binding intensity (ln)” value was 7.2.
In the case of “TTGTTATTATATTACGCATGCATCATTTATTTGCAC [TGCATGCA_site525]”, the “gcPBM binding intensity (ln)” value is reported as 8.27.
With “TGCTGTATATTTTTCTGTACACATTTATATATTCCA [XGTACX_site6244]” the “gcPBM binding intensity (ln)” value was 7.15.
In the case of “TTTTTTTTTCTTCTTTTCAAATTTAAGAAATTATAA [CACACA_negctrl_site18]”, the “gcPBM binding intensity (ln)” value is reported as 6.83.
For “AAGAATAAGAAGAAGGATCCCCTTCAAAAAAAAAAA [TGCATGCA_negctrl_site525]”, the “gcPBM binding intensity (ln)” value was 6.59.
With “TATAAATAAAGATATACACACATATAAATATTTTTC [CACACA_site7798]” the “gcPBM binding intensity (ln)” value was 6.87.
